According to the supplement of paper PMC10126150:
Sequences with one replicate were seen in a single cluster, so their values are uncertain.

Test system: ATP
Assay: switch fluorescence ratio, 500 uM ATP over buffer (Cy3 cluster intensity, sum of 5 cycles each) (fold (ratio)); higher = stronger signal-on switching upon ATP binding; sequences stand for … in TCGTCGGCAGCGTCAGATGTGTATAAGAGACAGTTTTTTTTTTTTTTTTTTTTTTTTT…TC
Conditions: aptamer strand: ATP DNA aptamer (quencher-CACCTGGGGGAGTATTGCGGAGGAAGG + anchor), 100 nM annealed; ATP concentration: 500 uM; one replicate
In short: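 Values give the fluorescence ratio for each switch-domain sequence, averaged from per-cluster ratios of summed target-cycle to summed buffer-cycle Cy3 intensity. The Cy3-labelled switching-strand clusters sat on a modified Illumina MiSeq flow-cell, were annealed to 100 nM quencher-labelled ATP aptamer, and were imaged in selection buffer, then after 15 min with 500 uM ATP at 22 °C. Five cycles ran with NaOH stripping and re-annealing between them, and clusters outside 100-1000 RFU were excluded.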
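Note: ATP exposure 15 min at 22 °C before imaging.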

Sequence | switch fluorescence ratio
GCTGGACCTG | 1.03
TGACTGTGGC | 1.01
GTAGTCCAAT | 1.01
TAAAAGATAT | 1
ACGGGAAAGA | 1.05
AAATTCTATC | 0.95
TGTCAGGGTA | 0.996
GAGTTATACA | 1.01
GCGCTGGAGG | 0.99
GTGTAGGAGA | 0.998
TACCCATATC | 1.09
GACCGAGTAG | 0.972
TGATTGGGAT | 0.972
CTGTCTTCTT | 0.996
CAGCAGCATC | 3.43
ATGGTTCGAT | 0.967
AGGCCCTTAG | 0.996
GGAACCCTAG | 1.02
GTGAAGGCAG | 1
TTCCCTCTTT | 1.2
GTGGA | 1.02
ATGCGCTTAT | 1
GAGTGTACTA | 1.04

Sequence | switch fluorescence ratio
GAATATCAAA | 0.985
GTTCACCCAA | 1.08
GTGTGATCGT | 0.953
CGGACAGAAC | 1.06
TGTGTATTAT | 1.23
TAAAAAGGCA | 1
ACCGAGATCG | 1.03
GTTTTTACCG | 1.05
GCCGTACGTG | 0.983
AGTAGTGATG | 0.975
TCATTTTGT | 1.02
TAGACAGCTT | 1
CTACGGTGAT | 1.75
GAATGGGCAC | 1.2
TCCGCGCATT | 1.18
ACAGAGCTAG | 1.06
TGGTACATGC | 1.03
GCAATGGGTA | 1.07
TATCAATTCA | 0.985
TTGGCTTGGA | 1
TGCTGCGCCA | 1.08
GGTCAGGTGC | 2.84
ATCAATTTTA | 0.99

Sequence | switch fluorescence ratio
AAGAATGGGG | 1.03
CGTCCTGATA | 1.04
AAGTACGTC | 1.13
GTTACACTC | 0.994
CTGTTTATTC | 1.05
TCCGCTCAAT | 4.16
GGCTGAAATT | 0.992
AGGTCTCGCT | 0.967
TAATTCGCTT | 1.02
GTTGAGATGT | 1.01
GGTTTGGAAT | 1.06
AGTCCTTGTT | 1.01
GGGACGCGAT | 1.02
GGGCAGGCAG | 0.992
AGGAACCTCC | 1.73
TGCTTAATGT | 1.02
GTGACCGGGT | 1.09
GTGTTTCGTG | 0.985
TTCATTTTCG | 1.03
TCCACCCGCA | 6.69
GATATCATGT | 1.02
GTATTAAAAC | 1.02
CTAATTAGAA | 0.976

Sequence | switch fluorescence ratio
GGGACCCCAT | 0.999
CAATGCGGT | 1.03
AAGCTTTGAC | 1.02
CGTTTCCAGC | 1.07
GGTTGCCGGG | 0.988
ATTCCATCGG | 0.995
CGTTTCGAAC | 0.999
GCCGCCCTGA | 1.13
TCCATTGCGG | 2.84
TGTTTTGGTA | 0.99
AGAGTTAAAT | 1.01
CTCTGGCTCT | 0.985
TATCGCTAGC | 1.05
ATTAACATAG | 1.01
GGGAACGAAG | 0.943
AAATGATAGG | 1
AGAACGAGCG | 0.99
TAATATTGCT | 1.35
GATAGAGTGT | 1
TAATTAAAGG | 1
TCCGCGAGCT | 2.52
TTGATCCCTA | 0.997
TCCGTTGTAA | 2.03

Sequence | switch fluorescence ratio
ATTTAACTAA | 0.995
TATGGCTCAG | 1.03
ATAGGCGGCC | 1.03
ACATTTGCGG | 0.995
GGTATACAGG | 1.01
ATTTGCAGAT | 1.03
CAGCAGCACG | 1.41
GATTTCTTTT | 1
ATCTGATAG | 0.98
CCCCGGGGTA | 0.987
TATCTTGAGT | 0.953
TTCCTAGCCC | 1.31
TGGGCTAGGA | 1.01
CGCTACCCCG | 1.16
AGTATGTTAA | 1.03
AAAATGTCGT | 1.01
TGACCGTACT | 1.2
GACTTAACGG | 1.03
CGCGTTAAGG | 1.04
GACAGATTTC | 1.03
AACCGCTGAG | 1.24
AGCCGGGACC | 0.992
CCTATCAGCG | 1.13

Sequence | switch fluorescence ratio
CCTAAGGGGC | 1.09
TCTTCAGAGT | 0.986
TAATTCCTCC | 2.04
CAGCGATGGC | 1.13
TGGGCGGCCG | 1.02
AAAATTCCTC | 1.11
GCGGGTGAAG | 0.976
AATAGCGAG | 1.01
CAAATTGGCG | 1.16
CTTGCAGTCG | 1.03
GGCGCGTCGA | 0.977
CATGGTGTAC | 1.09
CGCATCCTC | 2.46
TGCCTAGTGT | 0.99
ATGGAGGTCC | 1.01
AAGGTGGTTA | 1.01
GGTACCGCAC | 1.84
CAAGGTGTTG | 1.02
AGTACCCCGT | 0.981
GCTCGTACTA | 1.04
GCGGCTAAGA | 1.02
GGCTGCACTT | 1.22
CAGATGGAGT | 0.975

Sequence | switch fluorescence ratio
TCAACGGGAT | 1.01
TGTCACGAC | 1.08
AGAGCCACGG | 1.04
TTCTAACTGA | 0.988
GCCTATTCAC | 0.997
TGGGAAGTGC | 1.01
AGCCCCCTTT | 1.07
GCTGATCAAC | 1.01
CAAAGGTGAA | 1.08
GCGCAGGTTG | 1.11
CGGCCGTCAA | 1.4
CATAGAGCGA | 1.01
CGGCTAATCA | 1.01
GGCCTTTCTT | 0.991
TGCACGTAAC | 1.69
GGTCTTTTCC | 0.971
CCAACCTTTT | 1.03
GATGTCCTAG | 0.96
TGCCAATTT | 0.992
